# According to article PMC12820563:
# The other results are listed elsewhere or left out. The list includes weakly bound sequences.
# Biological target: T1, MBP-FoxP3dN (UniProt Q99JB6)
# T1 sequence: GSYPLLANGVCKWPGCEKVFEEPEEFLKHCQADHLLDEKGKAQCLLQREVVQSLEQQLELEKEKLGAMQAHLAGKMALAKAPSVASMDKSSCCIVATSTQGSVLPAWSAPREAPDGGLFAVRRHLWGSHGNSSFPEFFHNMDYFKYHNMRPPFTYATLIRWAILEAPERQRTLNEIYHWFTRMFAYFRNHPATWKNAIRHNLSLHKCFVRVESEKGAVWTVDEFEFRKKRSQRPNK
# Assay: PD-seq (MBP pull-down with sequencing)
# Conditions: 20 mM Tris-HCl pH 7.5, 100 mM NaCl, 1.5 mM MgCl2, 0.4 uM protein, 0.1 uM dsDNA library, 30 min, room temperature, amylose pull-down; high values mean tight binding; double strand, one strand shown
row,Sequence,binding signal (RPM ratio (pull-down/input))
1,GATGATTGTTCTCCCAGCTGATGAATTACCGAATTCGAGTAAACAAATTTTCCTAATCTTTCTGTTCAAGCGCCATCTAC,0.754
2,GATGATTGTTCTCCCAGCTGATGAATTCTAAGCCTCGAGTAAACAAATTTTCCTAATCTTTCTGTTCAAGCGCCATCTAC,0.322
3,GATGATTGTTCTCCCAGCTGATGAATTGGCGATATCGAGTAAACAAATTTTCCTAATCTTTCTGTTCAAGCGCCATCTAC,0.594
4,GATGATTGTTCTCCCAGCTGATGAATTTTGAGCGTCGAGTAAACAAATTTTCCTAATCTTTCTGTTCAAGCGCCATCTAC,0.583
5,GATGATTGTTCTCCCAGCTGATGAATTTTTTGTGTCGAGTAAACAAATTTTCCTAATCTTTCTGTTCAAGCGCCATCTAC,0.531
6,GATGATTGTTCTCCCAGCTGATGAATTAGGCACGTCGAGTAAACAAATTTTCCTAATCTTTCTGTTCAAGCGCCATCTAC,1.03
7,GATGATTGTTCTCCCAGCTGATGAATTTTTAGGATCGAGTAAACAAATTTTCCTAATCTTTCTGTTCAAGCGCCATCTAC,0.222
8,GATGATTGTTCTCCCAGCTGATGAATTCCGCTCGTCGAGTAAACAAATTTTCCTAATCTTTCTGTTCAAGCGCCATCTAC,0.774
9,GATGATTGTTCTCCCAGCTGATGAATTTCCCACGTCGAGTAAACAAATTTTCCTAATCTTTCTGTTCAAGCGCCATCTAC,0.273
10,GATGATTGTTCTCCCAGCTGATGAATTGATCAAGTCGAGTAAACAAATTTTCCTAATCTTTCTGTTCAAGCGCCATCTAC,0.245
11,GATGATTGTTCTCCCAGCTGATGAATTATGTGGCTCGAGTAAACAAATTTTCCTAATCTTTCTGTTCAAGCGCCATCTAC,1.57
12,GATGATTGTTCTCCCAGCTGATGAATTAATGCGTTCGAGTAAACAAATTTTCCTAATCTTTCTGTTCAAGCGCCATCTAC,2.76
13,GATGATTGTTCTCCCAGCTGATGAATTGCAAACATCGAGTAAACAAATTTTCCTAATCTTTCTGTTCAAGCGCCATCTAC,2.67
14,GATGATTGTTCTCCCAGCTGATGAATTCGAGCGGTCGAGTAAACAAATTTTCCTAATCTTTCTGTTCAAGCGCCATCTAC,0.282
15,GATGATTGTTCTCCCAGCTGATGAATTCTCGCTCTCGAGTAAACAAATTTTCCTAATCTTTCTGTTCAAGCGCCATCTAC,0.367
16,GATGATTGTTCTCCCAGCTGATGAATTCGAATCATCGAGTAAACAAATTTTCCTAATCTTTCTGTTCAAGCGCCATCTAC,0.582
17,GATGATTGTTCTCCCAGCTGATGAATTGACCGTCTCGAGTAAACAAATTTTCCTAATCTTTCTGTTCAAGCGCCATCTAC,0.364
18,GATGATTGTTCTCCCAGCTGATGAATTGGCTCGATCGAGTAAACAAATTTTCCTAATCTTTCTGTTCAAGCGCCATCTAC,0.261
